Results from PubChem BioAssay AID1963576 (National Center for Advancing Translational Sciences (NCATS), 2024).
The campaign covered roughly 46,000 compounds. About 60 (0.1%) were called active. Roughly 3% stayed inconclusive and do not appear here. Calls follow the shape of the dose curve; as a rule, active = well fitted inhibition curve with a large enough effect; inconclusive = small, poorly fitted or top-dose-only effect; inactive = no such curve, though single readings can be large or run the other way. This is one part of the list.

Test: Primary qHTS assay for Inhibitors of ovarian cancer metastasis using an organotypic tumor microenvironment (TME) model. Also: nearly all actives have a fitted effect of over 65% in size.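 As to activity change, negative = inhibition: plate controls were DMSO wells for no effect and tomatine positive control wells for full effect.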
Conditions: SKOV3ip1-GFP adhesion/invasion on 3D omental model, fluorescence; series mostly up to 45.8 µM; activity change, negative = inhibition: at the top concentration
In short: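 Adhesion/invasion was scored as fixed GFP-labeled SKOV3ip1 cell counts (488/509 nm), normalized to DMSO and tomatine controls. Cancer cells in serum-free medium, with four compound doses (0.36-46 umol/L), sat 2 hr at RT then 16 hr at 37 C on a 48 hr fibroblast/mesothelial/ECM culture.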

outcome, inactive:
CCOc1ccc(NS(=O)(=O)c2ccc3c(c2)CCN3C(C)=O)cc1, COc1cccc(C2CC(=O)Nc3c2c(=O)n(C)c2ncnn32)c1OC (stereo not drawn), Cc1ccc(OCC(=O)Nc2ccc(Cl)c(-c3nc4ccccc4[nH]3)c2)cc1C, CCC1CN(C(=O)N2CCC(C(=O)NCCC3=CCCCC3)CC2)c2cc(C)ccc2O1 (stereo not drawn), COc1ccc(NC(=O)CSc2nnc(NC(=O)Nc3ccccc3)s2)c(OC)c1, COc1ccc(Cn2c(=O)[nH]c3cc(C(=O)N4CCN(c5cccc(OC)c5)CC4)ccc3c2=O)cc1, Cn1cc(C(=O)NCc2ccc(Cl)cc2)c(=O)c2cc(S(=O)(=O)N3CCCCCC3)ccc21, Cc1cc(C)c2c(n1)SCCN2C(=O)Nc1ccc(C(=O)Nc2cc(Cl)ccc2C)cc1, CC(C)(C)c1ccc(C2NC(=O)c3n[nH]c(-c4cccs4)c32)cc1 (stereo not drawn), Cc1ccc(C(=O)Nc2ccc(C(=O)OCc3cc(=O)n4ccsc4n3)cc2)cc1, CCCCSCCCNC(=O)CN1C(=O)COc2ccc(S(=O)(=O)N3CCC(C)CC3)cc21, O=C(CNC(=O)c1ccc(Cl)cc1)OCc1cc(=O)n2ccsc2n1, CCN(CC)S(=O)(=O)c1ccc2c(c1)N(CC(=O)N(C)Cc1ccccc1)C(=O)CO2, Cc1ccc(Cn2cc(CCC(=O)NCc3ccccc3F)c3ccccc32)cc1, COC(=O)c1ccc(NC(=O)Cn2nc(C(=O)Nc3ccc(C)cc3)ccc2=O)cc1, COc1ccccc1N1CCN(c2ncnc3c2nc2n3CCCC2)CC1, COc1ccc(O)c(C2Nc3ccccc3-n3c(-c4ccccc4)c4c(=O)n(C)c(=O)n(C)c4c32)c1 (stereo not drawn), COc1cccc(CNC(=O)C(NS(=O)(=O)c2ccc3c(c2)oc(=O)n3C)C(C)C)c1 (stereo not drawn), COc1ccc2c(c1)-c1nc(NC(=O)c3ccccc3F)sc1CC2, Cc1nnc(SCc2nc(-c3ccc(Cl)cc3)no2)n1-c1ccc(F)cc1, COc1ccccc1NC(=O)Cn1c(=O)n(CCc2ccccc2)c(=O)c2c3c(sc21)CN(C(C)=O)CC3, COc1ccc(CNC(=O)CSc2ncc3c(n2)-c2cc(Cl)ccc2N(Cc2ccccc2)S3(=O)=O)cc1OC, Cc1cccc(N(C)C(=O)CN(C)S(=O)(=O)c2ccc3[nH]c4c(c3c2)CCCC4)c1, Cc1ccc(Cn2cc(/C=C(/C#N)C(=O)Nc3cccc(Cl)c3)c3ccccc32)cc1, COc1ccc(OC)c(CCNC(=O)CN2C(=O)COc3ccc(S(=O)(=O)N4CCC(C)CC4)cc32)c1, CCC1CCCCN1CCCNC(=O)c1c(O)nc2c(C)cccn2c1=O (stereo not drawn), CCOc1ccccc1NC(=O)c1sc2nc(-c3ccc(OC)cc3)ccc2c1N, O=C(NCCSCc1ccccc1Cl)C1CCN(S(=O)(=O)Cc2ccccc2)CC1, COc1ccc(OCC(=O)Nc2ccc(O)c(-c3nc4ccccc4s3)c2)cc1, CCCn1c(=O)c2sccc2n2c(CCCC(=O)Nc3ccccc3OCC)nnc12, CCS(=O)(=O)N1CC(=O)N(c2cc(C)ccc2C)C(C)(C(=O)NC2CCCCC2)C1 (stereo not drawn), CC(CNC(=O)c1cc(-c2ccccc2)n[nH]1)c1ccccc1 (stereo not drawn), COc1ccc(CN2C(=O)N(c3ccc(F)cc3)C(=O)C2CC(=O)Nc2cc(OC)cc(OC)c2)cc1 (stereo not drawn)

Activity change, negative = inhibition, inactive:
COc1ccc(OC)c(S(=O)(=O)Nc2cc3c(C(C)=O)c(C)oc3c3ccccc23)c1 -9.86%, COC(=O)c1c(NC(=O)COc2cc(C)c(Cl)c(C)c2)sc2c1CCCC2 3.62%, COc1ccc(S(=O)(=O)N(CC(=O)N(C)Cc2ccccc2)c2ccc(Cl)cc2)cc1 47%, CCn1cc2nc(SCc3ccc(C)cc3)n(CCc3ccccc3)c(=O)c2n1 68%, Cc1cccc(OCC(=O)Nc2ccc(-c3nc4cc(C)ccc4o3)c(O)c2)c1 -7.28%, CC1CCCN(c2cc3c(cc2F)c(=O)c(S(=O)(=O)c2cccc(Cl)c2)cn3C)C1 (stereo not drawn) -0.826%, O=C(NC1CCCCC1)c1c[nH]c2ccc(S(=O)(=O)Nc3ccccc3F)cc2c1=O 12%, CCOC(=O)c1ccc(NC(=O)c2c(NCc3sccc3C)sc3c2CCCCC3)cc1 1.06%, CC(C)(C)c1ccc(C(=O)NC(Cc2c[nH]c3ccccc23)C(=O)OCC(=O)c2ccccc2)cc1 (stereo not drawn) 18.8%, Cc1cc(C)cc(NC(=O)N2CCN3CCCCC3C2)c1 (stereo not drawn) 6.83%, COc1cccc(C(=O)Nc2cc3cc(OC)ccc3oc2=O)c1 3.34%, COc1ccc(N(CC(=O)NCCc2cccc(C)c2)S(=O)(=O)c2c(C)noc2C)cc1 -7.77%, COC(=O)c1cc2sc(Cl)cc2n1Cc1nc(-c2ccc(OC)cc2)oc1C 9.83%, Cc1cc(C(=O)NCCc2ccc(Cl)cc2)c2c(C)nn(-c3cccc(F)c3)c2n1 0.447%, COc1ccc(C)cc1NC(=O)C(=O)NCC1(c2ccccc2)CCCC1 0.419%, O=C(Nc1nnc(S(=O)(=O)N2CCN(c3ccc(F)cc3)CC2)s1)c1ccc(Cl)cc1 4.36%, Cc1ccc(Cl)cc1NC(=O)COCc1cc(-c2ccco2)on1 8.04%, COc1ccc(-c2[nH]c3c(c2-c2c(-n4cccc4)n(C)c(=O)n(C)c2=O)c(=O)n(C)c(=O)n3C)cc1 6.37%, Cc1ccc(NC(=O)Cn2c(CCC(=O)O)ccc2-c2ccc(Cl)cc2)cc1 0.799%, Cc1nnsc1C(=O)Oc1ccc(C(C)C)cc1 -0.276%, Cc1cccc(NC(=O)CSc2nc(C3CCCC3)nc3c2c(=O)n(C)c(=O)n3C)c1C 0.182%, Cc1c(C(=O)OCC2CCCCC2)[nH]c2c1C(=O)CC(c1ccc(Cl)cc1)C2 (stereo not drawn) -18.2%, COc1ccc(S(=O)(=O)Nc2cccc(-c3ccc(N4CCCCCC4)nn3)c2)cc1 -9.68%, CCn1c(=O)cc(OCC(=O)NCc2ccccc2Cl)c2ccccc21 -3.83%, CCN(CC)C(=O)c1sc2c(c1C)c(=O)n(-c1ccc(C)c(C)c1)c(=O)n2Cc1cc(=O)n2c(C)cccc2n1 2.3%, COc1cc2ccccc2cc1C(=O)Nc1cc(-c2nc3ccccc3o2)ccc1C 0.867%, Cc1ccc(S(=O)(=O)N2CCc3cc(C(=O)Nc4ccc(C)c(C)c4)ccc32)cc1 5.02%, O=c1cc(-c2ccccc2)nc2cc(-c3ccc(F)cc3)[nH]n12 -15.9%, CCC(=O)OCc1cnc(C)c2oc(=O)c(C(=O)Nc3ccccc3C(F)(F)F)cc12 5.22%, O=C(c1ccccc1)n1nc(-c2ccco2)nc1NCc1cccs1 10.4%, COc1cc2c(cc1OC)CN(CCc1ccc(NC(=O)c3cc(OC)c(OC)cc3NC(=O)c3cnc4ccccc4c3)cc1)CC2 13.7%, COc1ccc(-c2nc3ccccc3o2)cc1NC(=O)CSc1ccc(Cl)cc1 -3.54%, Cc1nn(-c2ccc(N3CCCC3)nn2)c(C)c1CCC(=O)NCc1ccccc1F -6.76%, O=C(CCSCc1ccccc1F)N1CCN(c2ccc(Cl)cc2)CC1 -8.82%, CCCCNc1nc(Oc2ccc(OCCC)nn2)nc(N(C)C)n1 -2.94%, COc1ccc(CC(=O)Nc2c(C(=O)Nc3ccc(F)cc3)oc3ccccc23)cc1OC 4.87%, COc1ccc(-n2c(/C=C/c3cccc4ccccc34)nc3ccccc3c2=O)cc1Cl -0.0736%, CN(C(=O)c1ccc(F)cc1C(F)(F)F)C1CCN(c2nnc(-c3ccnn3C)c3ccccc23)CC1 -25.6%, CCOC(=O)c1ccc(NC2=CC(c3ccc(O)c(OCC)c3)N(c3ccc(C(=O)OCC)cc3)C2=O)cc1 (stereo not drawn) 9.54%, COc1cc2c(C(=O)Nc3ccc(C)cc3Br)cn(C)c(=O)c2cc1OC -0.243%, CCCN1CCN(CCNC(=O)Nc2cc(C)ccc2OC)CC1 18.9%, O=C(Cc1ccc(F)cc1)N1CCC(c2nc3c(nnn3Cc3ccc(F)cc3)c(=O)[nH]2)CC1 -16.1%, Cc1ccc(CNC(=O)c2nc(-c3ccc(Cl)cc3)n3c2CCCCC3)cc1 5.03%, N#Cc1ccccc1Cn1c(=O)n(CCCCC(=O)NCc2ccc3c(c2)OCO3)c(=O)c2ccccc21 -3.18%, Cc1ccccc1C(=O)Nc1nnc(S(=O)(=O)N(C)Cc2ccc(Cl)cc2)s1 1.93%, COc1ccc(CC(=O)N2CC(=O)Nc3ccc(Br)cc3C2c2ccc(F)cc2)cc1 (stereo not drawn) 1.98%, COc1ccc(-c2cn3c(n2)sc2cc(C(=O)NC4CCCCCC4)ccc23)cc1 1.77%, Cc1c(Cl)cccc1NC(=O)C(CCS(C)(=O)=O)N1Cc2ccccc2C1=O (stereo not drawn) -0.167%, Cc1cccc(NC(=O)C(=O)NCCc2sc(-c3ccccc3)nc2C)c1C -4.08%, COc1ccc(-n2nnc(-c3nsc(NC(=O)c4cccs4)n3)c2C)cc1OC -7.35%, Cc1ccc(Cl)cc1NC(=O)N1CCC2(CC1)Oc1ccccc1C(=O)N2Cc1ccccc1F 6.88%, CC(=O)c1c(C)oc2ccc(N(C(=O)Oc3ccccc3)S(=O)(=O)c3ccccc3)cc12 6%, Cc1ccc(S(=O)(=O)c2c(Nc3cc(C)ccc3C)sc(C(=O)c3ccc4c(c3)OCO4)c2N)cc1 -0.881%, CCc1ccc(NC(=O)C(NS(=O)(=O)c2cccc3nsnc23)c2ccccc2)cc1 (stereo not drawn) 7.6%, Cc1nn(C(=O)COc2ccccc2Br)c(C)c1Sc1ccccc1 3.87%, COc1ccc(CCN2C(=O)N(c3ccc(C)cc3)C(=O)C2CC(=O)Nc2ccc(F)cc2)cc1 (stereo not drawn) -17.5%, COc1ccc(C)cc1NC(=O)c1cc(S(=O)(=O)N2CCC(C)CC2)cn1C -17.9%, Cc1cccc(N2CCN(C(=O)c3c(C)oc4ncnc(N5CCOCC5)c34)CC2)c1C -4.99%, Nc1cc(=O)nc(SCC(=O)Nc2ccc(F)cc2)n1-c1cccc(Cl)c1 -17.5%, Cc1cccc(NC(=O)c2sc3nc(-c4ccccc4)cn3c2C)c1C 3.63%
